Counter-ions that a name gives are not always drawn. About 40 (3%) of roughly 1,300 compounds showed activity. The list shows a part of the results.
Test system: Plasmodium falciparum NF54/iGP1_RE9H ulg8 stage V gametocytes
Assay: gametocyte viability (luciferase signal relative to DMSO control) (% of DMSO control); higher = less gametocytocidal activity, active = 50 or less
Details: exposure time: 72 h
Outline: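 NF54/iGP1_RE9Hulg8 stage V gametocytes (day 12; ~2.5% gametocytemia, 3% hematocrit) were incubated with compounds at 10 µM or 1 µM final, in one well each, for 72 h at 37 °C in medium with 0.5% Albumax II. Luminescence after D-luciferin addition was read on an IVIS Lumina II. Viability refers to the mean of plate DMSO vehicle wells.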

| Structure (SMILES) | gametocyte viability (concentration: 1 µM) | gametocyte viability (concentration: 10 µM) |
| --- | --- | --- |
| CC(C)OC(=O)CCC/C=C\C[C@@H]1[C@@H](CC[C@@H](O)CCc2ccccc2)[C@H](O)C[C@@H]1O [Latanoprost] | inactive: 92.8 | inactive: 91.4 |
| CN(C)CCc1c[nH]c2ccc(C[C@H]3COC(=O)N3)cc12 [Zolmitriptan] | inactive: 83.8 | inactive: 81.7 |
| CN(C)CCC=C1c2ccccc2C=Cc2ccccc21 [Cyclobenzaprine hydrochloride] | inactive: 82.8 | inactive: 84.9 |
| C[N+]1(C)CCC(=C(c2ccccc2)c2ccccc2)CC1 [Diphemanil methylsulfate] | inactive: 87 | inactive: 83 |
| NS(=O)(=O)c1cc2c(cc1Cl)NCNS2(=O)=O [Hydrochlorothiazide] | inactive: 91.9 | inactive: 97.7 |
| CNNCc1ccc(C(=O)NC(C)C)cc1 [Procarbazine hydrochloride] | inactive: 91.7 | inactive: 89.4 |
| O=c1[nH]c(=O)n([C@H]2C[C@H](O)[C@@H](CO)O2)cc1F [Floxuridine] | inactive: 81.9 | inactive: 88.5 |
| CC(=O)Oc1cc(C(C)C)c(OCCN(C)C)cc1C [Moxisylyte hydrochoride] | inactive: 79.4 | inactive: 82.4 |
| CC(c1cc2ccccc2s1)N(O)C(N)=O (centres undefined) [Zileuton] | inactive: 90.7 | inactive: 85.3 |
| CN(C)CCCOc1nn(Cc2ccccc2)c2ccccc12 [Benzydamine hydrochloride] | inactive: 80 | inactive: 83.3 |
| C#C[C@]1(O)CC[C@H]2[C@@H]3[C@H](C)CC4=C(CCC(=O)C4)[C@H]3CC[C@@]21C [Tibolone] | inactive: 94.5 | inactive: 81.3 |
| CC(=O)OCC(=O)[C@@]1(O)CC[C@H]2[C@@H]3CCC4=CC(=O)C=C[C@]4(C)[C@@]3(F)[C@@H](O)C[C@@]21C [Isoflupredone acetate] | inactive: 87 | inactive: 86.1 |
| COc1cc(C(=O)N2CCOCC2)cc(OC)c1OC [Trimetozine] | inactive: 81.7 | inactive: 80.2 |
| COc1cc2nc(N3CCN(C(=O)C4CCCO4)CC3)nc(N)c2cc1OC (centres undefined) [Terazosin hydrochloride] | inactive: 96.5 | inactive: 92.6 |
| CC1(O)CCOC(=O)C1 (centres undefined) [Mevalonic-D, L acid lactone] | inactive: 86.7 | inactive: 93.8 |
| Nc1ccc(S(=O)(=O)Nc2ccc(Cl)nn2)cc1 [Sulfachloropyridazine] | inactive: 82.7 | inactive: 87.1 |
| O=C(O)Cc1ccc(-c2ccccc2)cc1 [Felbinac] | inactive: 89.9 | inactive: 85.2 |

Reference: the supplement of paper PMC12297408
